Laboratory results taken from the supplement of paper PMC4967469.

Experiments:
Experiment in all cases: Viability of human cancer cell lines after 72 h of drug (GDSC screen)
[1] = compound: CC/C(=C(\c1ccccc1)c1ccc(OCCN(C)C)cc1)c1ccccc1 [Tamoxifen]; conditions: top dose 5 µM
Description: (§1)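 Human cancer cell lines in 384-well plates, medium with 10% serum, drug for 72 h over a 256-fold dose range (nine 2-fold or five 4-fold steps up to the top dose). Adherent lines were fixed and stained with the nucleic acid dye Syto60, suspension lines read with resazurin; signal relative to control wells, capped at 0 and 100%. One two-parameter sigmoid per drug and line, fitted in a mixed model over all curves with the slope shared within a line.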

[2] = compound: CCCC(=O)OCc1ccc(OC(=O)/C=C(C)/C=C/C=C(C)/C=C/C2=C(C)CCCC2(C)C)cc1 [VNLG/124]; conditions: top dose 5.12 µM; top dose inferred
Description: as §1

[3] = compound: CN(NC(=O)CC(=O)NN(C)C(=S)c1ccccc1)C(=S)c1ccccc1 [Elesclomol]; conditions: top dose 0.2 µM; top dose inferred
Description: as §1

[4] = compound: COc1cc(N2CCC(C(N)=O)CC2)ccc1Nc1nc(N)c(Cl)c(Nc2ccccc2S(=O)(=O)C(C)C)n1 [HG-5-88-01]; conditions: top dose 10 µM; top dose inferred
Description: as §1

[5] = compound: Cc1c(N)nc([C@H](CC(N)=O)NC[C@H](N)C(N)=O)nc1C(=O)N[C@H](C(=O)N[C@H](C)[C@@H](O)[C@H](C)C(=O)N[C@H](C(=O)NCCc1nc(-c2nc(C(=O)NCCC[S+](C)C)cs2)cs1)[C@@H](C)O)[C@@H](OC1OC(CO)C(O)C(O)C1OC1OC(CO)C(O)C(OC(N)=O)C1O)c1cnc[nH]1 [Bleomycin]
Description: as §1

[6] = compound: Cc1ccc(NC(=O)c2ccc(CN3CCN(C)CC3)cc2)cc1Nc1nc(-c2cccnc2)cs1 [Masitinib]; conditions: top dose 20 µM
Description: as §1

[7] = compound: O=C(/C=C/c1ccc(CN(CCO)CCc2c[nH]c3ccccc23)cc1)NO [LAQ824]; conditions: top dose 1.024 µM; top dose inferred
Description: as §1

[8] = compound: O=C(Nc1ccc(OC(F)(F)F)cc1)c1sccc1NCc1ccnc2ccccc12 [OSI-930]; conditions: top dose 10.24 µM
Description: as §1

[9] = compound: O=C(Nc1cccc(Nc2ncc(Br)c(NCCc3cnc[nH]3)n2)c1)N1CCCC1 [BX-912]; conditions: top dose 10.24 µM; top dose inferred
Description: as §1

[10] = compound: O=S(=O)(O)c1ccc2cc(N=Nc3cc(S(=O)(=O)O)c4cccnc4c3O)ccc2c1 [NSC-87877]; conditions: top dose 16 µM; top dose inferred
Description: as §1

[11] = top dose 50 µM, screen: GDSC drug entry 1378, top dose inferred
[12] = top dose 64 µM, screen: GDSC drug entry 190

SH-4 (melanoma, adherent)
AUC [1]: 0.868 | IC50 [1]: > 5 µM | AUC [2]: 0.974 | IC50 [2]: > 5.12 µM | AUC [3]: 0.853 | IC50 [3]: > 0.2 µM | AUC [4]: 0.852 | IC50 [4]: > 10 µM | AUC [5, 11]: 0.597 | IC50 [5, 11]: 6.67 µM | AUC [5, 12]: 0.586 | IC50 [5, 12]: 7.84 µM | AUC [6]: 0.854 | IC50 [6]: > 20 µM | AUC [7]: 0.407 | IC50 [7]: 0.031 µM | AUC [8]: 0.955 | IC50 [8]: > 10.2 µM | AUC [9]: 0.903 | IC50 [9]: > 10.2 µM | AUC [10]: 0.844 | IC50 [10]: > 16 µM

NCI-H1568 (lung adenocarcinoma, adherent)
AUC [1]: 0.94 | IC50 [1]: > 5 µM | AUC [2]: 0.976 | IC50 [2]: > 5.12 µM | AUC [3]: 0.8 | IC50 [3]: 0.126 µM | AUC [4]: 0.916 | IC50 [4]: > 10 µM | AUC [5, 11]: 0.372 | IC50 [5, 11]: 1.27 µM | AUC [5, 12]: 0.464 | IC50 [5, 12]: 3.12 µM | AUC [6]: 0.948 | IC50 [6]: > 20 µM | AUC [7]: 0.367 | IC50 [7]: 0.0249 µM | AUC [8]: 0.963 | IC50 [8]: > 10.2 µM | AUC [9]: 0.927 | IC50 [9]: > 10.2 µM | AUC [10]: 0.981 | IC50 [10]: > 16 µM

NCI-H1694 (small cell lung carcinoma, suspension)
AUC [1]: 0.987 | IC50 [1]: > 5 µM | AUC [2]: 0.982 | IC50 [2]: > 5.12 µM | AUC [3]: 0.796 | IC50 [3]: 0.0928 µM | AUC [4]: 0.926 | IC50 [4]: > 10 µM | AUC [5, 11]: 0.835 | IC50 [5, 11]: 32.7 µM | AUC [5, 12]: 0.832 | IC50 [5, 12]: 40.7 µM | AUC [6]: 0.817 | IC50 [6]: 11.1 µM | AUC [7]: 0.498 | IC50 [7]: 0.0631 µM | AUC [8]: 0.953 | IC50 [8]: > 10.2 µM | AUC [9]: 0.728 | IC50 [9]: 2.84 µM | AUC [10]: 0.979 | IC50 [10]: > 16 µM

HT-115 (large intestine, adherent)
AUC [1]: 0.964 | IC50 [1]: > 5 µM | AUC [2]: 0.986 | IC50 [2]: > 5.12 µM | AUC [3]: 0.872 | IC50 [3]: 0.162 µM | AUC [4]: 0.951 | IC50 [4]: > 10 µM | AUC [5, 11]: 0.854 | IC50 [5, 11]: 34.2 µM | AUC [5, 12]: 0.938 | IC50 [5, 12]: > 64 µM | AUC [6]: 0.892 | IC50 [6]: 19.9 µM | AUC [7]: 0.717 | IC50 [7]: 0.247 µM | AUC [8]: 0.99 | IC50 [8]: > 10.2 µM | AUC [9]: 0.991 | IC50 [9]: > 10.2 µM | AUC [10]: 0.991 | IC50 [10]: > 16 µM

IA-LM (large cell lung carcinoma, adherent)
AUC [1]: 0.969 | IC50 [1]: > 5 µM | AUC [2]: 0.98 | IC50 [2]: > 5.12 µM | AUC [3]: 0.715 | IC50 [3]: 0.0551 µM | AUC [4]: 0.927 | IC50 [4]: > 10 µM | AUC [5, 11]: 0.88 | IC50 [5, 11]: > 50 µM | AUC [5, 12]: 0.462 | IC50 [5, 12]: 3.11 µM | AUC [6]: 0.867 | IC50 [6]: > 20 µM | AUC [7]: 0.483 | IC50 [7]: 0.0573 µM | AUC [8]: 0.948 | IC50 [8]: > 10.2 µM | AUC [9]: 0.975 | IC50 [9]: > 10.2 µM | AUC [10]: 0.984 | IC50 [10]: > 16 µM

LC-1-sq (lung squamous cell carcinoma, adherent)
AUC [1]: 0.983 | IC50 [1]: > 5 µM | AUC [2]: 0.955 | IC50 [2]: > 5.12 µM | AUC [3]: 0.917 | IC50 [3]: > 0.2 µM | AUC [4]: 0.983 | IC50 [4]: > 10 µM | AUC [5, 11]: 0.841 | IC50 [5, 11]: 43.8 µM | AUC [5, 12]: 0.812 | IC50 [5, 12]: 41.6 µM | AUC [6]: 0.935 | IC50 [6]: > 20 µM | AUC [7]: 0.418 | IC50 [7]: 0.0366 µM | AUC [8]: 0.97 | IC50 [8]: > 10.2 µM | AUC [9]: 0.933 | IC50 [9]: > 10.2 µM | AUC [10]: 0.985 | IC50 [10]: > 16 µM

MSTO-211H (mesothelioma, adherent)
AUC [1]: 0.99 | IC50 [1]: > 5 µM | AUC [2]: 0.988 | IC50 [2]: > 5.12 µM | AUC [3]: 0.872 | IC50 [3]: 0.16 µM | AUC [4]: 0.967 | IC50 [4]: > 10 µM | AUC [5, 11]: 0.192 | IC50 [5, 11]: 0.426 µM | AUC [5, 12]: 0.942 | IC50 [5, 12]: > 64 µM | AUC [6]: 0.965 | IC50 [6]: > 20 µM | AUC [7]: 0.986 | IC50 [7]: > 1.02 µM | AUC [8]: 0.967 | IC50 [8]: > 10.2 µM | AUC [9]: 0.966 | IC50 [9]: > 10.2 µM | AUC [10]: 0.982 | IC50 [10]: > 16 µM

NB13 (neuroblastoma, adherent)
AUC [1]: 0.99 | IC50 [1]: > 5 µM | AUC [2]: 0.978 | IC50 [2]: > 5.12 µM | AUC [3]: 0.6 | IC50 [3]: 0.0227 µM | AUC [4]: 0.908 | IC50 [4]: > 10 µM | AUC [5, 11]: 0.744 | IC50 [5, 11]: 14.1 µM | AUC [5, 12]: 0.83 | IC50 [5, 12]: 34.1 µM | AUC [6]: 0.961 | IC50 [6]: > 20 µM | AUC [7]: 0.383 | IC50 [7]: 0.0318 µM | AUC [8]: 0.971 | IC50 [8]: > 10.2 µM | AUC [9]: 0.947 | IC50 [9]: > 10.2 µM | AUC [10]: 0.988 | IC50 [10]: > 16 µM

H2595 (mesothelioma, adherent)
AUC [1]: 0.966 | IC50 [1]: > 5 µM | AUC [2]: 0.933 | IC50 [2]: > 5.12 µM | AUC [3]: 0.671 | IC50 [3]: 0.0455 µM | AUC [4]: 0.914 | IC50 [4]: > 10 µM | AUC [5, 11]: 0.578 | IC50 [5, 11]: 5.54 µM | AUC [5, 12]: 0.266 | IC50 [5, 12]: 0.648 µM | AUC [6]: 0.979 | IC50 [6]: > 20 µM | AUC [7]: 0.488 | IC50 [7]: 0.0585 µM | AUC [8]: 0.974 | IC50 [8]: > 10.2 µM | AUC [9]: 0.972 | IC50 [9]: > 10.2 µM | AUC [10]: 0.978 | IC50 [10]: > 16 µM

no-10 (glioma, adherent)
AUC [1]: 0.976 | IC50 [1]: > 5 µM | AUC [2]: 0.983 | IC50 [2]: > 5.12 µM | AUC [3]: 0.951 | IC50 [3]: > 0.2 µM | AUC [4]: 0.934 | IC50 [4]: > 10 µM | AUC [5, 11]: 0.829 | IC50 [5, 11]: 41 µM | AUC [5, 12]: 0.745 | IC50 [5, 12]: 24.1 µM | AUC [6]: 0.956 | IC50 [6]: > 20 µM | AUC [7]: 0.552 | IC50 [7]: 0.092 µM | AUC [8]: 0.979 | IC50 [8]: > 10.2 µM | AUC [9]: 0.965 | IC50 [9]: > 10.2 µM | AUC [10]: 0.983 | IC50 [10]: > 16 µM

Lines with a small IC50 respond at low doses; fits outside the tested doses are given as limits. For AUC the same curve is integrated over the 256-fold range of doses and scaled to a fraction; values near 1 show little effect. For some of these results: A top dose marked as inferred was derived from the fitted curves, not read from the paper. For some of these results: Where an entry number is given, a second screen of the drug exists; the two often differ.
